Reference: publication PMC4336329 (PLoS ONE, 2015)
Hit rate of the full screen: of about 310,000 compounds, about 2,200 (0.71%) showed an effect of 50% or more. The effect is printed as a negative number. The list shows a part of the results.

Target: human ether-à-go-go-related gene (hERG) potassium channel (human, UniProt Q12809)
Experiment: primary screen, population patch clamp on CHO cells stably expressing hERG

Chain of human ether-à-go-go-related gene (hERG) potassium channel (Q12809 whole entry, looked up): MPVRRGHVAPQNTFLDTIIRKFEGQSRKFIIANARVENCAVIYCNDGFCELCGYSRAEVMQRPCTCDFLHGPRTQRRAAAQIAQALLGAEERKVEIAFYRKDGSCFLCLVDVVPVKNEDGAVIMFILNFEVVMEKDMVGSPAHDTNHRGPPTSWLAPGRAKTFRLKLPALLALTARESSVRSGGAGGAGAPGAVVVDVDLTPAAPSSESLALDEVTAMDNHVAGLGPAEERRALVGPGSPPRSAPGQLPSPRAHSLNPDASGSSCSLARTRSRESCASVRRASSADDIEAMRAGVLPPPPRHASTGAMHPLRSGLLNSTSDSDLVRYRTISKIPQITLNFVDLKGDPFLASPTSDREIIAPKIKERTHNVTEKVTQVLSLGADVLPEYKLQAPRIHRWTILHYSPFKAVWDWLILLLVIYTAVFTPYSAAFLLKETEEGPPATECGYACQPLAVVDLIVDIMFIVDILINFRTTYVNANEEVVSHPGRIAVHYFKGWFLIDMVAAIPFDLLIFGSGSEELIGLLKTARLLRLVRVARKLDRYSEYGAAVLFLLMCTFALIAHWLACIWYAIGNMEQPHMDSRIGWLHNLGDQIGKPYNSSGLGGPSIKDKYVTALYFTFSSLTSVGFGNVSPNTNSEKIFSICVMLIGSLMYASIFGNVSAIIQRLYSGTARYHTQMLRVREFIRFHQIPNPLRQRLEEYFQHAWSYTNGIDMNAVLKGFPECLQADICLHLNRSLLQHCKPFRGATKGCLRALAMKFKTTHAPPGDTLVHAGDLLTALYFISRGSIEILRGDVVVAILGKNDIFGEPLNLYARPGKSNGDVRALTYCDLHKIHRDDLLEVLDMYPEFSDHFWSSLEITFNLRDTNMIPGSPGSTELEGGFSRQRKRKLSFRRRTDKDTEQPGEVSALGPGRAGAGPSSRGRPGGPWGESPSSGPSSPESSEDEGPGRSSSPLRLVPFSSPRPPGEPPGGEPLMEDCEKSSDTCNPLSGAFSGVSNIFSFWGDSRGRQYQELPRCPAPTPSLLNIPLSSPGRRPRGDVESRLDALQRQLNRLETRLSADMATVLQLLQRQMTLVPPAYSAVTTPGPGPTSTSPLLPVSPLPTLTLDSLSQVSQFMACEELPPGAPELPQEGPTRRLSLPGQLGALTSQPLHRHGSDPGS

First: CCOC(=O)C1=C(CC)OC(N)=C(C#N)C1c1ccc(OC)c(C)c1OC (stereo not drawn)
Second: COc1ccc(-c2csc(NC(=O)CSCc3c(C)noc3C)n2)c(OC)c1
The “hERG current change (%, negative = inhibition) at 1uM” value of the first is lower: 1.72% for the first, 5.97% for the second.

Compared with `Oc1cccc(C=NCc2ccccc2)c1`, `CC1(C)CC(=O)C(C2(O)C(=O)N(Cc3ccccc3)c3ccccc32)CO1` (stereo not drawn) is lower in “hERG current change (%, negative = inhibition) at 1uM” value: 12.7% for the first, -11.7% for the second.

Going from `Cc1ccc(CNC(=O)COc2ccc(S(=O)(=O)N3CCCC3)cc2)cc1` to `Cc1ccc(S(=O)(=O)Cc2ccc(C(=O)N3CCN(c4ccc(F)cc4)CC3)o2)cc1`, the “hERG current change (%, negative = inhibition) at 1uM” value falls from 18.1% to -18.6%.

Compared with `CCC(C)N(C)C(=O)c1cc2ccccc2c(-c2ccccc2Cl)n1` (stereo not drawn), `CCC/C(=N\NC(=O)CNC(=O)c1ccc(Cl)cc1)c1ccccc1` is higher in “hERG current change (%, negative = inhibition) at 1uM” value: -5.29% for the first, 10.8% for the second.

Compared with `Cc1ccc(-c2nc3cnccn3c2Nc2ccccc2)o1`, `COc1ccccc1C(C)NC(=O)c1ccc(C)o1` (stereo not drawn) is lower in “hERG current change (%, negative = inhibition) at 1uM” value: 7.82% for the first, -5.39% for the second.

First: CCOC(=O)Nc1ccc2c(c1)N(C(=O)CN)c1ccccc1CC2
Second: Cc1ccc(NC(=O)CN2C(=O)NC3(CCc4ccccc43)C2=O)cc1Cl (stereo not drawn)
The “hERG current change (%, negative = inhibition) at 1uM” value of the first is lower: 2.32% for the first, 8.06% for the second.

Going from `CCCOc1ccc(-c2c(C(=O)N/N=C(\C)c3cccs3)nnn2-c2nonc2N)cc1` to `CCOc1ncccc1C(=O)OCc1ccc(Cl)cc1`, the “hERG current change (%, negative = inhibition) at 1uM” value falls from 13.6% to -4%.

Compared with `Nc1ccc(C(=O)OCC(=O)NC(=O)c2ccccc2)cc1[N+](=O)[O-]`, `Cc1ccc(Nc2ccc(C(N)=O)cc2[N+](=O)[O-])cc1C` is lower in “hERG current change (%, negative = inhibition) at 1uM” value: 19.7% for the first, 12.6% for the second.

First: COc1cc(/C=C2/C(=N)N3C(c4ccccc4)=CSC3=NC2=O)ccc1OCC(=O)O
Second: COc1ccc([N+](=O)[O-])cc1COc1ccc2c(-c3ccccc3)cc(=O)oc2c1
The “hERG current change (%, negative = inhibition) at 1uM” value of the first is lower: 9.21% for the first, 25.6% for the second.

Compared with `CCOC(=O)C1(Cc2cccc(F)c2)CCN(Cc2ccc(COC)o2)CC1`, `O=C(/C=C\c1ccc(-c2cccc([N+](=O)[O-])c2)o1)N1CCOCC1` is higher in “hERG current change (%, negative = inhibition) at 1uM” value: 7.47% for the first, 8.02% for the second.

First: CCc1ccccc1S(=O)(=O)Cc1ccc(C(=O)NCCc2ccccc2)o1
Second: CC(NC(=O)c1ccccc1NS(=O)(=O)c1ccc(CCC(=O)O)cc1)c1ccccc1 (stereo not drawn)
The “hERG current change (%, negative = inhibition) at 1uM” value of the first is lower: 3.66% for the first, 11.2% for the second.

Going from `CC(=O)NC1CCC(C(=O)O)(c2ccccc2)C1` (stereo not drawn) to `CC(C(=O)N1CCC(C(N)=O)CC1)N(c1ccc(Oc2ccccc2)cc1)S(C)(=O)=O` (stereo not drawn), the “hERG current change (%, negative = inhibition) at 1uM” value rises from -8.84% to 4.29%.

First: Cc1cc(C)cc(NC(=O)c2ccc3c(c2)CCN3S(C)(=O)=O)c1
Second: Cc1nnc(NC(=O)c2cc(S(=O)(=O)N3CCCCC3)ccc2Cl)s1
The “hERG current change (%, negative = inhibition) at 1uM” value of the first is lower: 1.92% for the first, 18.8% for the second.

Going from `O=C(O)CCCNc1cc(N2CCN(C(=O)c3ccco3)CC2)c2noc3c2c1C(=O)c1ccccc1-3` to `Cc1ccc(S(=O)(=O)N(C)C)cc1NC(=O)c1ccccc1SCC(=O)N1CCCC1`, the “hERG current change (%, negative = inhibition) at 1uM” value falls from 19.4% to 17.7%.

First: N#CCCN1CCN(S(=O)(=O)c2ccc(C#N)cc2)CC1
Second: N#CCN1CCC(c2cc(-c3ccco3)n[nH]2)CC1
The “hERG current change (%, negative = inhibition) at 1uM” value of the first is lower: -0.107% for the first, 7.46% for the second.

First: COc1ccc(/C=N/Nc2nc(=O)[nH]nc2C)cc1OC
Second: COc1ccc(/C=N/NC(N)=S)cc1
The “hERG current change (%, negative = inhibition) at 1uM” value of the first is lower: 2.61% for the first, 3.33% for the second.

Going from `Cc1nc(NCCN2CCOCC2)c2oc3ccccc3c2n1.Cl` to `Cc1cc(Br)ccc1NC(=S)N1CCOCC1`, the “hERG current change (%, negative = inhibition) at 1uM” value rises from -8.71% to 14.2%.

First: Cn1c(SCC(=O)Nc2ccc(F)cc2)nc2c(c1=O)SCC2
Second: O=C(CCN1C(=O)/C(=C/c2ccc3c(c2)OCO3)SC1=S)Nc1cccc(C(=O)O)c1
The “hERG current change (%, negative = inhibition) at 1uM” value of the first is lower: 8.63% for the first, 11.2% for the second.

First: CCOc1ccc(S(=O)(=O)Nc2cccc(C(=O)NCC(c3ccco3)N(C)C)c2)cc1 (stereo not drawn)
Second: CN(C(=O)COC(=O)Cc1c[nH]c2ccccc12)c1c(N)n(Cc2ccccc2)c(=O)[nH]c1=O
The “hERG current change (%, negative = inhibition) at 1uM” value of the first is higher: 3.23% for the first, 1.49% for the second.

Going from `COc1ccc([N+](=O)[O-])cc1NCc1cccnc1` to `Cc1cc(-c2nnc(SCC(=O)c3ccc(Cl)cc3)o2)no1`, the “hERG current change (%, negative = inhibition) at 1uM” value rises from 0.59% to 12.5%.

Compared with `CC[C@H]1OC(=O)[C@H](C)[C@@H](O[C@H]2C[C@@](C)(OC)[C@@H](O)[C@H](C)O2)[C@H](C)[C@@H](O[C@@H]2O[C@H](C)C[C@H](N(C)C)[C@H]2O)[C@](C)(O)C[C@@H](C)[C@@H]2N[C@@H](COCCOC)O[C@H]([C@H]2C)[C@]1(C)O`, `CCOC(=O)C1CCCN(/C=C2\SC(=S)N(CC)C2=O)C1` (stereo not drawn) is lower in “hERG current change (%, negative = inhibition) at 1uM” value: 12.8% for the first, 3.87% for the second.
